In PubChem BioAssay (NCATS):
Inconclusive means that the source gave no clear call. Such entries were picked first, then a sample of the others. For some assays here: Where the call is inconclusive, the potency comes from a doubtful curve fit. Calls of active or inactive are those of the source. Unless noted, the call rests on the fitted dose curve; in most records, active means well fitted curve in either direction with a large enough effect (not every such curve was filed as active); inconclusive means small, poorly fitted or top-dose-only effect, or another doubt; inactive means flat fitted curve, though single readings scatter.

Columns and labels:
[1] = NFAT Signaling Pathway (AID 444); conditions: Jurkat NFAT-bla M1, carbachol, beta-lactamase ratio, 5 h; at 17.2 µM (top of the series) unless noted;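 further: carbachol stimulus at about its EC50 of 1 µM final; on the % scale 0 is the no-effect control and ±100 the full control effect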
Outline: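 Jurkat cells with NFAT-driven β-lactamase reporter and co-expressed M1 receptor, stimulated with carbachol (final 1 uM, ~EC50), compound titration, 5 h at 37 °C. CCF4 loaded 1 h at RT; 460/530 nm ratio gave %activity and AC50.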

[2] = Stat Signaling Pathway (AID 446); conditions: ME-180 SIE beta-lactamase reporter, IL-6 stimulated, 5 h; at 7.69 µM (top of the series) unless noted;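 further: ME-180 cervical cancer cells given 40 pM IL-6 alongside compound; SIE-controlled beta-lactamase reporter measured as 460/530 nm FRET emission ratio; top concentration of the series differs between compounds; on the % scale 0 is the no-effect control and ±100 the full control effect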
Outline: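 Emission at 460 and 530 nm (excitation 405 nm) reports SIE-controlled beta-lactamase in ME-180 cells. Cells received compound with 40 pM IL-6 for 5 hrs at 37 C; data scaled between 300 pM IL-6 and 125 nM JAK-inhibitor controls.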

[3] = molecular target: Glucocorticoid receptor (Homo sapiens) (UniProt P04150); assay: GR-GFP Redistribution (AID 450;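 active means compounds whose dose series gives a full or clear partial fitted curve of increased nuclear translocation; inconclusive means weak partial curve or effect only at the top dose; inactive means no dose-dependent translocation response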; further: potency means the concentration at half of the fitted maximal effect); conditions: U2OS GR-GFP nuclear translocation, laser cytometry, 2 h
Chain of UniProt P04150 (P04150 whole entry, looked up, the tested form may be a part): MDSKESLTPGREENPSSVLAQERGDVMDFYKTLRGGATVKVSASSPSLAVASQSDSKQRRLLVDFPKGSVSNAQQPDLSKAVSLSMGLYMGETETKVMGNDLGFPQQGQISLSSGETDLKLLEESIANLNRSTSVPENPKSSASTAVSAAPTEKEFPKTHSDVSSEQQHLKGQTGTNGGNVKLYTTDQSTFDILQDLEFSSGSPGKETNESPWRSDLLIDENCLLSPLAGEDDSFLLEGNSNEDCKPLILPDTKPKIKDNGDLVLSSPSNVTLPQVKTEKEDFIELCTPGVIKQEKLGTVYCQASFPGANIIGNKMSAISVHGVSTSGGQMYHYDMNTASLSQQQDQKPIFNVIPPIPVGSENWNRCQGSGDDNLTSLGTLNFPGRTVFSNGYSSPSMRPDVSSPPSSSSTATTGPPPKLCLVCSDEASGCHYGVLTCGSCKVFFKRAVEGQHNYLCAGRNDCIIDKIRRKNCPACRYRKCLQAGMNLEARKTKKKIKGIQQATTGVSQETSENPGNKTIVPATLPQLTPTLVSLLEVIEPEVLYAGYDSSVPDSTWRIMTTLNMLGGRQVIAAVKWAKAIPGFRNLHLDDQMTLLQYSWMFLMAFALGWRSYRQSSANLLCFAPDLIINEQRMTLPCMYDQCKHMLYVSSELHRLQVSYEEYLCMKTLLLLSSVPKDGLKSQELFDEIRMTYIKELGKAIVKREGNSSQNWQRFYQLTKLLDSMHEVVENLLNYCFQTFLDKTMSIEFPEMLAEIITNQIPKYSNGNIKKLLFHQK

[4] = qHTS Assay for Identification of Small Molecule Agonists for Hypoxia Response Element Signaling Pathway (AID 914; active means well fitted activation curve with a large enough effect in the signal ratio, with a control signal flat, not every such curve was filed as active; inconclusive means small, poorly fitted or top-dose-only effect, or effect the other way, or a change in a side signal; the % refers to the signal ratio; further: potency means the concentration at half of the fitted maximal effect; on activation: top concentration of the series differs between compounds; % of control where 0% means no effect); conditions: ME-180 (cervical carcinoma) HRE-bla reporter, beta-lactamase ratio, CoCl2, 17 h; activation: active compounds read high
Outline: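 A beta-lactamase reporter under hypoxia response element control in ME-180 cells served as the system. Compound titrations plus EC50 CoCl2 ran 17 h at 37 degrees Celsius; AC50 values were fitted from %Activity.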

[5] = molecular target: Glucocorticoid receptor (Homo sapiens) (UniProt P04150); assay: GR-EFC Redistribution (AID 451; calls by dose curve; further: potency means the concentration at half of the fitted maximal effect); conditions: CHO-K1 GR-EFC translocation, beta-gal luminescence, 2 h
Outline: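 CHO-K1 cells expressing nuclear EA and GR-ED fragments of b-gal; compounds titrated up to 46 uM final, 2 h at 37 C. GR nuclear translocation read as complemented b-gal luminescence after 1 h RT detection.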

[6] = molecular target: Mitogen-activated protein kinase 10 (Mus musculus) (UniProt Q61831); assay: JNK3 AlphaScreen Assay (AID 530); conditions: JNK3 lysate, c-Jun phosphorylation; activity change, negative = inhibition: at 57.1 µM (top of the series);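 further: kinase came from lysate of stimulated human HepG2 cells; signal reports phosphorylation of biotinylated GST-cJun 1-79 at Ser73 with 10 µM ATP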; further: potency means the concentration at half of the fitted maximal effect; on activity change, negative = inhibition: on the % scale 0 is the no-effect control and ±100 the full control effect
Outline: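 Activity was read by AlphaScreen after JNK3-containing HepG2 lysate (cytokine pre-activated) phosphorylated biotinylated GST-cJun with 10 uM ATP at room temperature. Phospho-Ser73 cJun antibody with Protein-A acceptor beads provided detection.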

[7] = molecular target: Cytochrome P450 2C9 (Homo sapiens) (UniProt P11712); assay: qHTS Assay for Inhibitors and Substrates of Cytochrome P450 2C9 (AID 883; active means well fitted inhibition curve with a large enough effect; inconclusive means small, poorly fitted or top-dose-only effect; inactive means no such curve, though single readings can be large or run the other way; further: potency means the concentration at half of the fitted maximal effect; nearly all actives have a fitted effect of over 60% in size); conditions: recombinant CYP2C9, luciferin-H luminescence, 60 min; activity change, negative = inhibition: at 57.1 µM (top of the series)
Chain of UniProt P11712 (P11712 whole entry, looked up): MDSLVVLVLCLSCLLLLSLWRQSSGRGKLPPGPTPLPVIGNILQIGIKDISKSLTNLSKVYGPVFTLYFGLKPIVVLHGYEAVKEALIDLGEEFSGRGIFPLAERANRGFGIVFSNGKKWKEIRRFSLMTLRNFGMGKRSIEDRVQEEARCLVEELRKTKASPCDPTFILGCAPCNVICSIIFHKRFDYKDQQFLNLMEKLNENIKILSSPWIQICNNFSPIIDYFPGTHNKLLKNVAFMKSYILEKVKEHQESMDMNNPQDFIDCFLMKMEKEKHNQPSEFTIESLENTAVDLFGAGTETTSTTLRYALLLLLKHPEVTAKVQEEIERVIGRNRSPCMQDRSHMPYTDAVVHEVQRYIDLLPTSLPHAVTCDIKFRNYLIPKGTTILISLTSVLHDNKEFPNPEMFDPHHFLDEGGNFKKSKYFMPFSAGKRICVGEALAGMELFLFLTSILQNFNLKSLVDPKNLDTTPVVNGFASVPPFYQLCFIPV
Outline: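 Human CYP2C9 (10nM) with Luciferin-H at 100uM (its KM) in 25mM KPO4; compound preincubated 10 min at 37C, then NADPH regeneration for 60 min at 37C. Luciferin read by luminescence after detection reagent; normalized to 57uM sulphaphenazole as full inhibition.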

[8] = molecular target: Cytochrome P450 2D6 (Homo sapiens) (UniProt P10635); assay: qHTS Assay for Inhibitors and Substrates of Cytochrome P450 2D6 (AID 891; active means well fitted inhibition curve with a large enough effect; inconclusive means small, poorly fitted or top-dose-only effect; inactive means no such curve, though single readings can be large or run the other way;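 further: luciferin methyl ether substrate demethylated by CYP2D6 with NADPH regeneration; potency means the concentration at half of the fitted maximal effect; nearly all actives have a fitted effect of over 60% in size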); conditions: recombinant CYP2D6, luciferin-ME EGE luminescence; activity change, negative = inhibition: at 57.1 µM (top of the series)
Chain of UniProt P10635 (P10635 whole entry, looked up): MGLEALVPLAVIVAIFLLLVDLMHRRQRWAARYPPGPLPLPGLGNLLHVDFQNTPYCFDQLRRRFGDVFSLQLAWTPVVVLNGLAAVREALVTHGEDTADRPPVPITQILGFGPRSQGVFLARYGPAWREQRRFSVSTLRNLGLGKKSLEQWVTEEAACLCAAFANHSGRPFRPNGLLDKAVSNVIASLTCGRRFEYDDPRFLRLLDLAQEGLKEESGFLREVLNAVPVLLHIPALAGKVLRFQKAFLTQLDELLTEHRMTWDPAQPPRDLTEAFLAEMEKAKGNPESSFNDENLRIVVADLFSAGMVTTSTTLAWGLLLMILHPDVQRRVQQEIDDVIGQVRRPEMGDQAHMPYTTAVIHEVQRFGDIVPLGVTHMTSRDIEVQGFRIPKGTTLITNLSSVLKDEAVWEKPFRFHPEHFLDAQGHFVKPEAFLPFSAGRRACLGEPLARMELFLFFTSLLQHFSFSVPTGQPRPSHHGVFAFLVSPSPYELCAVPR
Outline: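 Luminescent read-out of luciferin formed by 5 nM human CYP2D6 demethylating 30 uM Luciferin-ME EGE (Km level) over 60 min at room temperature after NADPH regeneration addition. Data normalized to full inhibition by 1.43 uM quinidine.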
Tags describe the fitted curve by direction and shape or compound fluorescence and quenching.

## O=C(Oc1ccccc1N1C(=O)CCC1=O)c1ccco1
[1]
  activity change, negative = inhibition: inactive: 8.69%
[2]
  activity, negative = inhibition: inactive: 1.19% [at 17.2 µM]

## COc1ccccc1CN1CCC2(CCNCC2)CC1
[1]
  activity change, negative = inhibition: inconclusive: -38.1% [inhibitor] [at 7.69 µM]
[2]
  activity, negative = inhibition: inactive: 6.24%

## CCOC(=O)CSC1=C(C#N)C(=O)NC(c2ccc(OC)c(OC)c2)S1 (stereo not given)
[1]
  activity change, negative = inhibition: active: -123%
[2]
  activity, negative = inhibition: inconclusive: -33.9% [inhibitor] [at 17.2 µM]

## Clc1ccc(-n2ncc3c(NCc4cccs4)ncnc32)cc1
[1]
  activity change, negative = inhibition: inconclusive: -18% [inhibitor]
[2]
  activity, negative = inhibition: inactive: -14.7% [at 17.2 µM]

## CCOC(=O)C1=C(CSc2nc3c(cc2C#N)CN(C)CC3)OC(N)=C(C#N)C1c1ccccc1 (stereo not given)
[1]
  activity change, negative = inhibition: inconclusive: -65.6% [inhibitor]
[2]
  activity, negative = inhibition: inconclusive: -32.5% [inhibitor] [at 17.2 µM]

## CCCCc1nc(NCCNC(=O)c2ccco2)c(C#N)c2c1CSC(C)(C)C2
[1]
  activity change, negative = inhibition: inactive: 12.2%
[2]
  activity, negative = inhibition: inconclusive: -32.2% [inhibitor] [at 17.2 µM]

## CC1CCN(c2oc(-c3ccccc3Cl)nc2C#N)CC1
[1]
  activity change, negative = inhibition: inconclusive: -41.8% [inhibitor]
[2]
  activity, negative = inhibition: inconclusive: 55.7% [activator] [at 17.2 µM]

## CC(C)[C@@H]1OC(=O)C=CC=CC=CC=CC=CC[C@@H](O)[C@H](C)[C@@H](O)C[C@H](O)C[C@H](O)C[C@H](O)C[C@H](O)C[C@H](O)C[C@H](O)C=C[C@@H]1C
[1]
  activity change, negative = inhibition: inactive: 9.95% [at 7.69 µM]
[2]
  activity, negative = inhibition: inactive: 8%

## N#Cc1c(-c2ccco2)cc(C2CC2)nc1N
[1]
  activity change, negative = inhibition: inactive: 9.72%
[2]
  activity, negative = inhibition: inactive: -18.4% [at 17.2 µM]

## Cc1nc(/N=C(\N)Nc2ccccc2)nc2ccccc12
[1]
  activity change, negative = inhibition: inconclusive: -48.7% [inhibitor]
[2]
  activity, negative = inhibition: inactive: -26.3% [at 17.2 µM]

## COCc1cc(=O)[nH]c(Nc2nc3ccc(C)cc3o2)n1
[1]
  activity change, negative = inhibition: inconclusive: -24.7% [inhibitor]
[2]
  activity, negative = inhibition: inconclusive: -31.4% [inhibitor] [at 17.2 µM]

## Cn1c(N2CCOCC2)nc2c1c(=O)n(Cc1ccc(Cl)c(Cl)c1)c(=O)n2C
[1]
  activity change, negative = inhibition: inconclusive: 32.4% [activator]
[2]
  activity, negative = inhibition: inconclusive: 45.1% [activator] [at 17.2 µM]

## Clc1ccc(Cl)c(-c2ccc(/C=N/c3ncn[nH]3)o2)c1
[1]
  activity change, negative = inhibition: inconclusive: -43.9% [inhibitor]
[2]
  activity, negative = inhibition: inactive: -6.04% [at 17.2 µM]

## Clc1ccccc1CSc1nnc(-c2ccco2)c(-c2ccco2)n1
[1]
  activity change, negative = inhibition: inconclusive: -110% [inhibitor]
[2]
  activity, negative = inhibition: inconclusive: -34.2% [inhibitor] [at 17.2 µM]

## CCCCCCc1cc2cc(-c3nnc(-c4ccccc4O)o3)c(=O)oc2cc1O
[1]
  activity change, negative = inhibition: inconclusive: 23.8% [activator]
[2]
  activity, negative = inhibition: active: 73.1% [activator] [at 17.2 µM]
[3]
  Potency: inconclusive: 11.9 µM [partial curve]
[4]
  Potency: active: 3.16 µM

## c1cc(CSc2ncnc3nc[nH]c23)ccn1
[1]
  activity change, negative = inhibition: inconclusive: 34.2% [activator] [at 7.69 µM]
[2]
  activity, negative = inhibition: inactive: -2.3%
[5]
  Potency: inconclusive: > 9.22 µM [single point]
[4]
  activation: inactive: -3.44%

## CS(=O)(=O)N1CCC2(CCCN(C(=O)Nc3ccccc3)C2)CC1
[1]
  activity change, negative = inhibition: inactive: 11% [at 7.69 µM]
[2]
  activity, negative = inhibition: inactive: 3.16%
[5]
  Potency: inactive: > 46 µM

## CC(C)(CN)SCc1ccccc1
[1]
  activity change, negative = inhibition: inactive: -0.0753% [at 7.69 µM]
[2]
  activity, negative = inhibition: inconclusive: -33.3% [inhibitor]
[6]
  activity change, negative = inhibition: inactive: 0.211% [at 11.4 µM]

## COc1ccc(C(=O)CCN(C)C)c2ccccc12
[1]
  activity change, negative = inhibition: inconclusive: -131% [inhibitor] [at 7.69 µM]
[2]
  activity, negative = inhibition: inconclusive: -46% [inhibitor]
[6]
  activity change, negative = inhibition: inactive: -3.22% [at 11.4 µM]
[7]
  Potency: active: 3.98 µM

## OC1CC2CC[C@H](C1)N2CCCN1c2ccccc2Sc2ccc(Cl)cc21 (stereo not given in full)
[1]
  activity change, negative = inhibition: inconclusive: -57.8% [inhibitor] [at 7.69 µM]
[2]
  activity, negative = inhibition: inconclusive: -2.98% [inhibitor]
[6]
  activity change, negative = inhibition: inactive: -0.9% [at 11.4 µM]
[8]
  Potency: active: 0.0631 µM

## CC(=O)Nc1ccc(NCC(O)COc2ccccc2)cc1 (stereo not given)
[1]
  activity change, negative = inhibition: inactive: -5.41%
[2]
  activity, negative = inhibition: inactive: 3.96% [at 17.2 µM]

## Cn1c(=O)c(-c2cccs2)nc2cnc(Oc3ccccc3)nc21
[1]
  activity change, negative = inhibition: inconclusive: 46.1% [activator] [at 7.69 µM]
[2]
  activity, negative = inhibition: inconclusive: 49.8% [activator]
[3]
  Potency: inconclusive: 6.31 µM [single point]
[6]
  Potency: inconclusive: 15.8 µM [activator, partial curve]
[4]
  Potency: active: 3.16 µM

## O=C(Nc1cccc(F)c1)N1CC[C@@]2(CCCN(C(=O)c3cc(C(F)(F)F)cc(C(F)(F)F)c3)C2)C1
[1]
  activity change, negative = inhibition: inconclusive: 34% [activator] [at 7.69 µM]
[2]
  activity, negative = inhibition: inactive: -4.49%

## COCCn1c(=O)c(-c2cn(C)c3ccccc23)nc2cnc(Oc3ccc(OC)cc3)nc21
[1]
  activity change, negative = inhibition: inconclusive: 36.2% [activator] [at 7.69 µM]
[2]
  activity, negative = inhibition: inconclusive: 95.6% [activator]
[6]
  Potency: inconclusive: 1.26 µM [activator, full curve]
[4]
  Potency: active: 3.16 µM

## Cc1nn(-c2ccc(S(=O)(=O)O)cc2)c(O)c1N=Nc1ccc(-c2ccc(N=Nc3ccc4c(S(=O)(=O)O)cc(S(=O)(=O)O)c(N)c4c3O)c(O)c2)cc1O.[Cu].[Cu]
[1]
  activity change, negative = inhibition: inactive: 6.08% [at 7.69 µM]
[2]
  activity, negative = inhibition: inconclusive: -51.4% [inhibitor]
